Assay results from paper PMC12136788.
This is one part of the list.

T1: UNK ZnF1-3 (human, UniProt Q9C0B0 31-174)
T1 sequence: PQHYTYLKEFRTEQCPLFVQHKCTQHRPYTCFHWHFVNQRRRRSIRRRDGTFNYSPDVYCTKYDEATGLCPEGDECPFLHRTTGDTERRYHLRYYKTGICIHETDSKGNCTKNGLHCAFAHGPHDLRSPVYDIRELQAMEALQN

B1: chr1:193054138:193054139:+_ENSG00000116747_ENST00000432079|hu_mus|motif|central (ssRNA)
RNA: GGGAGUUCUACAGUCCGACGAUCUUAUACUCUGUAUCACACUUUCAGAACAAAGGUGUGAUUCAGUGAAGUAAAACACCACGGUUGUACAGUGUCUAUUAAAACGAAGUUCUCUACAGAGGAAGCUACAGUAUCCUGAAGACUCAACAGAGGAUUGAGCAUCA
B2: chr1:45868982:45868983:+_ENSMUSG00000025995_ENSMUST00000027139|mus_mus|motif|central (ssRNA)
RNA: GGGAGUUCUACAGUCCGACGAUCAGAAGUACAGAACAAAUCUCCUGCAGGUGAGACAGAGAUGUGCUCAAUAGAAGAUCCGGAUCGAGGAAGAAACUCUUUGUUCUUCUCUGAUCCAUCUCGCCACUCCACAAGCACACACUCCAACAGAGGAUUGAGCAUCA
B3: chr3:176767854:176767855:-_ENSG00000177565_ENST00000430069|hu_hu|hu_hu_hu_mus_False|8_98 (ssRNA)
RNA: GGGAGUUCUACAGUCCGACGAUCGACAUCCUUGUUACUUGGAACAUCCUGCCCUCCUUCCCGUAUGCAGUGUCUAAGCACGAGCUGCGUAGGGCCACUCGUGCUGUUCUCACUGAGGUUCCAGAUUCUUGCUGUUGAGUCUCCCAACAGAGGAUUGAGCAUCA
B4: 5490517_5492531_93_5pUTR_ENSMUSG00000056201_ENSMUST00000116560|mouse|control|control (ssRNA)
RNA: GGGAGUUCUACAGUCCGACGAUCUUGAUGACACCAUCAGAGACAGCCACACCAGAGGCCAUGUUUCCGGAAACGAAAGGGAGACAGAAAGAGCAACUGAAGACCUGAGCCGCCGCAGCUGCUGCCGGGAUCCGACUGAACGCGCAACAGAGGAUUGAGCAUCA
B5: chr1:155290277:155290278:+_ENSG00000160752_ENST00000447866|hu_mus|FALSE|FALSE (ssRNA)
RNA: GGGAGUUCUACAGUCCGACGAUCGCACUGCUCUAUGAGACUCUUGAGGCGGUUGUAACUGUCUUCCUCAUACUUGAAGAAAGCAGACUGCAGAUCCAGCGCCUCAUACAGUGCUUUCACCCGAGCCACUUUUUCUGGGUCCUUCAACAGAGGAUUGAGCAUCA
B6: chr12:48362563:48362564:+_ENSG00000134291_ENST00000256686|hu_hu|hu_hu_hu_mus_False|1_18 (ssRNA)
RNA: GGGAGUUCUACAGUCCGACGAUCUCCGUCAAGCCCUUCGAUAGACCCUUGCGGGGGAAACUGUAAUCACUUUGUAUGGGGAAGGAAAAGAAACGCCAAAAACUUUCCAAAAAGCGGUUCAAAAAGCAGGCGGGAGGUUGGGAACAACAGAGGAUUGAGCAUCA
B7: chr8:71637431:71637432:+_ENSMUSG00000006273_ENSMUST00000006435|mus_mus|FALSE|FALSE (ssRNA)
RNA: GGGAGUUCUACAGUCCGACGAUCUGCACAGAGUGGGGAGUCAUGGCUGCACCUGAGAACACACAGCGCAGAGACCCAAACAGCAGACAUGGUAGAGGCACACAGAAUACAGCCAAGAGCUCAAGCCAGGAAGGGACAGGAAUGCAACAGAGGAUUGAGCAUCA
B8: chr4:148551591:148551592:-_ENSMUSG00000063077_ENSMUST00000060537|mus_hu|mus_mus_mus_hu_False|58_78 (ssRNA)
RNA: GGGAGUUCUACAGUCCGACGAUCACCUGACAAAAUUAAAUAUCCCUGUAAAUUAGACAAGAAGCAGCAGGCAACAAAGUCUAUGCUUUGGAAUAUGUGCCAGGAAAAGUCAUCUUGUUUUUAGAUCUCAAGAGACAGUUCACACAACAGAGGAUUGAGCAUCA
B9: chrX:20185780:20185781:-_ENSG00000177189_ENST00000379565|hu_hu|motif|central (ssRNA)
RNA: GGGAGUUCUACAGUCCGACGAUCUUUAGUUAUAGUGAACAGGACAGCACUGGCCUCUCGUUCAGAGAAAAAUUUUUGUCGGAGAAUUUUAUCCAGCAAUUCACCUCCUUUCAUAAGUUCUGUUACUACAUACACAUACUUUCCCAACAGAGGAUUGAGCAUCA
B10: chr5:128440902:128440903:+_ENSG00000066583_ENST00000173527|hu_mus|hu_hu_hu_mus_True|48_58 (ssRNA)
RNA: GGGAGUUCUACAGUCCGACGAUCUUGAACGGUGCUGCCAAGUCCUUUGGGGUAUUGUUCCGUUAUGAUAACUGGAAUUCCUAAAAUCCGGGCCCCUUGCAACAGUCUCUGUCCCACACUAAUGAUGUCCCCAAAGUAUUUGAUCAACAGAGGAUUGAGCAUCA
B11: 63327676_63327796_430_CDS_ENSMUSG00000030451_ENSMUST00000076226|mouse|control|control (ssRNA)
RNA: GGGAGUUCUACAGUCCGACGAUCCUGCCUGCCCCACACCCAGCUUUCCAGGAUUGACUUGGCUCUAUACACAGGUGCAGGUGUCUCUUCUUCUUCCUUCUUCUCUUUGUCAUUAAGAUCUUCUUUCUUGGUUCCACUCUGAGCCAACAGAGGAUUGAGCAUCA
B12: chr7:87838734:87838735:-_ENSG00000075142_ENST00000394641|hu_mus|FALSE|FALSE (ssRNA)
RNA: GGGAGUUCUACAGUCCGACGAUCAUCUUCCCGCUGGUGCUGUAUCGCUUUGCAACUGAAUUCACAGUUUGGGGGCUCAACCUGAAUCCCAUAGUCGUCAGGGCCUUCUGUAGCUCCUGGGGAUCCACGGUGCCACUCCUAUCGCAACAGAGGAUUGAGCAUCA
B13: 38519776_38571995_239_3pUTR_ENSG00000105738_ENST00000222345|human|control|control (ssRNA)
RNA: GGGAGUUCUACAGUCCGACGAUCUGUCCUGGGGGCUCCAGACCGAGUGGCUCAGUAGCGCAGAGCAGGCAGUAGCUGUGGUCGCCCGCCAGCUGGAGGCAGCAAGGAUGUUGUCCUCGCCAUGCCUUAGUGCCUUCUAGACACCAACAGAGGAUUGAGCAUCA
B14: chr22:19452774:19452775:-_ENSG00000070010_ENST00000399523|hu_hu|hu_hu_hu_mus_False|48_48 (ssRNA)
RNA: GGGAGUUCUACAGUCCGACGAUCCUUCUCAUUGUAGUUGAUAGCAAUCACAUCUCCAGUCGUCAGACAGGCGAAGUUUCUCAAUGCGUUUUCUAAUACCGCUUUAGGGUUGGUAAUAUCCAGGAAGUCUGGGCUCUGAGGCUGCAACAGAGGAUUGAGCAUCA
B15: chr17:33883638:33883639:-_ENSMUSG00000077450_ENSMUST00000057373|mus_hu|FALSE|FALSE (ssRNA)
RNA: GGGAGUUCUACAGUCCGACGAUCGCAACAGCGCAGGGGCCACAGGGAGAAGAAGAGAUCGAGAGCUGGGGUUUGGCGUAAAUCUUACAAAGUGUAUAAAGAAUCUGUGUUUCUCUACAUUAACAAAAACCAAAGGCUACAAGACAACAGAGGAUUGAGCAUCA
B16: 2899911_2900031_822_3pUTR_ENSG00000087274_ENST00000398129|human|control|control (ssRNA)
RNA: GGGAGUUCUACAGUCCGACGAUCUCUGAAUCAAAACUUUUUCCUCUUCAUCAACCAGAAUGCCAUGGUAGUCAUGAUAAGCCACUUCUCCAAGGGAAAGCGCCUCCGGGGAGAUUGGCAAGAGGCCACAUUUCAUUGCAGAGACAACAGAGGAUUGAGCAUCA
B17: chr11:47650564:47650565:-_ENSG00000109919_ENST00000530428|hu_mus|FALSE|FALSE (ssRNA)
RNA: GGGAGUUCUACAGUCCGACGAUCAUAGGUAUUGAUGAGAUAGGCCAGUGAGUUACACAGCCACAAAGAAAUGAUGUCACCUAGGAGGCGAGGAAUGAGACCCGCAAAAAAUCCUACGAUGCCUUCUUCCCGGUAGAUGGUUACCAACAGAGGAUUGAGCAUCA
B18: chr19:53703180:53703181:+_ENSMUSG00000024974_ENSMUST00000025930|mus_hu|motif|central (ssRNA)
RNA: GGGAGUUCUACAGUCCGACGAUCAUUUUGAACAUGCUGGUUUAUUCCUUUUCGACGGAAGUGGUCUAGCACUUUGUUUAUGCUGUCGGUUCCAUUUAAAAUGGCCUUUCCUGUUGCUGCUCUAAGAAGUUGUUGCUUCUUUUCCAACAGAGGAUUGAGCAUCA
B19: chr12:57883053:57883054:+_ENSG00000166986_ENST00000262027|hu_hu|motif|central (ssRNA)
RNA: GGGAGUUCUACAGUCCGACGAUCAGUGAGGUCAUCUUGCUCCCAGCCAGAUAACAAAAAAAAAUAUCGGCAGAUUGCACGGGUGGAGAAGAGGUAGUUGCCGCUAUCCAGCUGCAAGACAGGGACCUUAGGCCGGGUCAGGAACAACAGAGGAUUGAGCAUCA
B20: chr1:163117127:163117128:-_ENSG00000143248_ENST00000313961|hu_mus|hu_hu_hu_mus_False|68_88 (ssRNA)
RNA: GGGAGUUCUACAGUCCGACGAUCUGCUACAAAGGAUGUAACUCAACACUCACAGGAACUUUUGGAAGCCUGGCUAAAUGACUACUUGAUUAGCUCCUUAUAAAAUUCAGAGCGCACAAAGCGGGGCAGAGAAUCCUUCUCCAUCAACAGAGGAUUGAGCAUCA
B21: chr2:29004620:29004621:+_ENSG00000213639_ENST00000296122|hu_mus|FALSE|FALSE (ssRNA)
RNA: GGGAGUUCUACAGUCCGACGAUCCAAUUUAAUAUUAAAUCUUCGUUUACACUCAUCGUAGAAUCCAUAAAUGCGAUUGAUGCUAGCACACUCAUGGUUUCCUCUUAGAAGAAAGAAGUUCUCCGGGUAUUUGAUUUUGUAAGCCAACAGAGGAUUGAGCAUCA
B22: chr5:144470944:144470945:+_ENSMUSG00000018001_ENSMUST00000116456|mus_mus|FALSE|FALSE (ssRNA)
RNA: GGGAGUUCUACAGUCCGACGAUCAUAUACAUUGUAUAACACUGAAGAAAUUAAUACAUAUGUACAUUAUUUACAUAGUAACUAUUUAUUGUAAAUAGAAAUGUUUUCUAAGAUAAAAAGAAAUCACAACAUGGUUUCUGGUCUCAACAGAGGAUUGAGCAUCA

The binders below were run against T1, UNK ZnF1-3 (assay: nsRBNS (natural sequence RNA bind-n-seq); RBNS binding buffer (assumed for nsRBNS): 25 mM Tris pH 7.5, 150 mM KCl, 3 mM MgCl2, 0.01% Triton X-100, 500 ug/ml BSA, 20 U/ml SUPERase-In, 4 C; UNK is unkempt and MSI1 is Musashi-1; names of the RNAs are library labels; protein concentration not given here; high values mean tight binding).

Binder | binding signal [enrichment R]
B1 | 0.49
B2 | 0.554
B3 | 0.559
B4 | 1.5
B5 | 0.424
B6 | 1.88
B7 | 2.25
B8 | 1.39
B9 | 1.07
B10 | 0.892
B11 | 0.677
B12 | 0.661
B13 | 0.548
B14 | 0.675
B15 | 1.82
B16 | 1.18
B17 | 1.38
B18 | 0.212
B19 | 1.97
B20 | 1.16
B21 | 0.892
B22 | 0.586
